# Laboratory results from patent US8883841B2, “Oncogenic ras-specific cytotoxic compound and methods of use thereof” (The Board of Regents of the University of Texas System, priority 2005, dated 2014).
# Assays:
# SR = assay: NCI in-vitro testing, SR (Leukemia); type: cell-based
# M14 = assay: NCI in-vitro testing, M14 (Melanoma)
# U251 = assay: NCI in-vitro testing, U251 (CNS Cancer)
# CCRF-CEM = assay: NCI in-vitro testing, CCRF-CEM (Leukemia)
# A498 = assay: NCI in-vitro testing, A498 (Renal Cancer)
# ACHN = assay: NCI in-vitro testing, ACHN (Renal Cancer)
# RPMI-8226 = assay: NCI in-vitro testing, RPMI-8226 (Leukemia)
# TK-10 = assay: NCI in-vitro testing, TK-10 (Renal Cancer)
# UO-31 = assay: NCI in-vitro testing, UO-31 (Renal Cancer)
# HCT-15 = assay: NCI in-vitro testing, HCT-15 (Colon Cancer)
# T-47D = assay: NCI in-vitro testing, T-47D (Breast Cancer)
# HCT-116 = assay: NCI in-vitro testing, HCT-116 (Colon Cancer)
# RXF 393 = assay: NCI in-vitro testing, RXF 393 (Renal Cancer)
# BT-549 = assay: NCI in-vitro testing, BT-549 (Breast Cancer)
# COLO 205 = assay: NCI in-vitro testing, COLO 205 (Colon Cancer)
# OVCAR-4 = assay: NCI in-vitro testing, OVCAR-4 (Ovarian Cancer)
# NCI/ADR-RES = assay: NCI in-vitro testing, NCI/ADR-RES (Breast Cancer)
# NCI-H23 = assay: NCI in-vitro testing, NCI-H23 (Non-Small Cell Lung Cancer)
# NCI-H226 = assay: NCI in-vitro testing, NCI-H226 (Non-Small Cell Lung Cancer)
# NCI-H460 = assay: NCI in-vitro testing, NCI-H460 (Non-Small Cell Lung Cancer); conditions: NCI-H450
# NCI-H522 = assay: NCI in-vitro testing, NCI-H522 (Non-Small Cell Lung Cancer); conditions: NCI-H622
# [1] = Log10 Concentration −4.0 (Molar)
# [2] = Log10 Concentration −5.0 (Molar)
# [3] = Log10 Concentration −6.0 (Molar)
# [4] = Log10 Concentration −7.0 (Molar)
# [5] = Log10 Concentration −8.0 (Molar)
compound,measurement,setting,value
"OCc1cn(Cc2ccc(Cl)cc2)c2ccccc12 [Oncrasin K060, 1H-Indole-3-methanol, 1-[(4-chlorophenyl)methyl]-]",Mean Optical Densities,SR; [1],0.167
same,Mean Optical Densities,SR; [2],0.474
same,Mean Optical Densities,SR; [3],0.166
same,Mean Optical Densities,SR; [4],0.429
same,Mean Optical Densities,SR; [5],0.818
same,Mean Optical Densities,M14; [1],0.090
same,Mean Optical Densities,M14; [2],0.760
same,Mean Optical Densities,M14; [3],1.259
same,Mean Optical Densities,M14; [4],1.327
same,Mean Optical Densities,M14; [5],1.333
same,Mean Optical Densities,U251; [1],0.258
same,Mean Optical Densities,U251; [2],0.737
same,Mean Optical Densities,U251; [3],1.299
same,Mean Optical Densities,U251; [4],1.550
same,Mean Optical Densities,U251; [5],1.673
same,Mean Optical Densities,CCRF-CEM; [1],0.116
same,Mean Optical Densities,CCRF-CEM; [3],1.841
same,Mean Optical Densities,CCRF-CEM; [4],1.900
same,Mean Optical Densities,CCRF-CEM; [5],1.946
same,Mean Optical Densities,A498; [1],0.056
same,Mean Optical Densities,A498; [2],0.048
same,Mean Optical Densities,A498; [3],0.120
same,Mean Optical Densities,A498; [4],0.408
same,Mean Optical Densities,A498; [5],1.394
same,Mean Optical Densities,ACHN; [1],0.345
same,Mean Optical Densities,ACHN; [2],0.608
same,Mean Optical Densities,ACHN; [3],1.323
same,Mean Optical Densities,ACHN; [4],1.516
same,Mean Optical Densities,ACHN; [5],1.589
same,Mean Optical Densities,RPMI-8226; [1],0.248
same,Mean Optical Densities,RPMI-8226; [2],0.290
same,Mean Optical Densities,RPMI-8226; [3],0.649
same,Mean Optical Densities,RPMI-8226; [4],1.341
same,Mean Optical Densities,RPMI-8226; [5],1.733
same,Mean Optical Densities,TK-10; [1],0.514
same,Mean Optical Densities,TK-10; [2],0.574
same,Mean Optical Densities,TK-10; [3],0.685
same,Mean Optical Densities,TK-10; [4],0.607
same,Mean Optical Densities,TK-10; [5],1.074
same,Mean Optical Densities,UO-31; [1],0.292
same,Mean Optical Densities,UO-31; [2],0.594
same,Mean Optical Densities,UO-31; [3],1.026
same,Mean Optical Densities,UO-31; [4],1.200
same,Mean Optical Densities,UO-31; [5],1.290
same,Mean Optical Densities,HCT-15; [1],0.214
same,Mean Optical Densities,HCT-15; [2],0.597
same,Mean Optical Densities,HCT-15; [3],1.238
same,Mean Optical Densities,HCT-15; [4],1.514
same,Mean Optical Densities,HCT-15; [5],1.635
same,Mean Optical Densities,T-47D; [1],0.465
same,Mean Optical Densities,T-47D; [2],0.453
same,Mean Optical Densities,T-47D; [4],0.684
same,Mean Optical Densities,T-47D; [5],1.079
same,Mean Optical Densities,HCT-116; [1],0.095
same,Mean Optical Densities,HCT-116; [2],0.296
same,Mean Optical Densities,HCT-116; [3],0.448
same,Mean Optical Densities,HCT-116; [4],0.625
same,Mean Optical Densities,HCT-116; [5],1.526
same,Mean Optical Densities,RXF 393; [1],0.041
same,Mean Optical Densities,RXF 393; [2],0.186
same,Mean Optical Densities,RXF 393; [3],0.237
same,Mean Optical Densities,RXF 393; [4],0.295
same,Mean Optical Densities,RXF 393; [5],0.380
same,Mean Optical Densities,BT-549; [1],0.066
same,Mean Optical Densities,BT-549; [2],0.524
same,Mean Optical Densities,BT-549; [3],0.782
same,Mean Optical Densities,BT-549; [4],0.856
same,Mean Optical Densities,BT-549; [5],0.831
same,Mean Optical Densities,COLO 205; [1],0.047
same,Mean Optical Densities,COLO 205; [2],0.295
same,Mean Optical Densities,COLO 205; [3],0.533
same,Mean Optical Densities,COLO 205; [4],0.839
same,Mean Optical Densities,COLO 205; [5],0.873
same,Mean Optical Densities,OVCAR-4; [1],0.294
same,Mean Optical Densities,OVCAR-4; [2],0.487
same,Mean Optical Densities,OVCAR-4; [3],0.553
same,Mean Optical Densities,OVCAR-4; [4],0.950
same,Mean Optical Densities,OVCAR-4; [5],1.135
same,Mean Optical Densities,NCI/ADR-RES; [1],0.192
same,Mean Optical Densities,NCI/ADR-RES; [2],0.744
same,Mean Optical Densities,NCI/ADR-RES; [3],1.045
same,Mean Optical Densities,NCI/ADR-RES; [4],1.117
same,Mean Optical Densities,NCI/ADR-RES; [5],1.191
same,Mean Optical Densities,NCI-H23; [1],0.141
same,Mean Optical Densities,NCI-H23; [2],0.807
same,Mean Optical Densities,NCI-H23; [3],0.865
same,Mean Optical Densities,NCI-H23; [4],0.975
same,Mean Optical Densities,NCI-H23; [5],1.059
same,Mean Optical Densities,NCI-H226; [1],0.168
same,Mean Optical Densities,NCI-H226; [2],0.151
same,Mean Optical Densities,NCI-H226; [3],0.182
same,Mean Optical Densities,NCI-H226; [4],0.375
same,Mean Optical Densities,NCI-H226; [5],0.884
same,Mean Optical Densities,NCI-H460; [1],0.201
same,Mean Optical Densities,NCI-H460; [2],0.483
same,Mean Optical Densities,NCI-H460; [3],0.638
same,Mean Optical Densities,NCI-H460; [4],1.219
same,Mean Optical Densities,NCI-H460; [5],1.847
same,Mean Optical Densities,NCI-H522; [1],0.187
same,Mean Optical Densities,NCI-H522; [2],0.773
same,Mean Optical Densities,NCI-H522; [3],1.344
same,Mean Optical Densities,NCI-H522; [4],1.392
same,Mean Optical Densities,NCI-H522; [5],1.465
